Results reported in publication PMC4336329 (PLoS ONE, 2015).
The campaign covered roughly 310,000 compounds. About 2,200 (0.71%) showed an effect of 50% or more. The effect is printed as a negative number. The list shows a part of the results.

What follows are molecules tested against human ether-à-go-go-related gene (hERG) potassium channel (human, UniProt Q12809) (assay: primary screen, population patch clamp on CHO cells stably expressing hERG).
human ether-à-go-go-related gene (hERG) potassium channel, sequence (Q12809 whole entry, looked up): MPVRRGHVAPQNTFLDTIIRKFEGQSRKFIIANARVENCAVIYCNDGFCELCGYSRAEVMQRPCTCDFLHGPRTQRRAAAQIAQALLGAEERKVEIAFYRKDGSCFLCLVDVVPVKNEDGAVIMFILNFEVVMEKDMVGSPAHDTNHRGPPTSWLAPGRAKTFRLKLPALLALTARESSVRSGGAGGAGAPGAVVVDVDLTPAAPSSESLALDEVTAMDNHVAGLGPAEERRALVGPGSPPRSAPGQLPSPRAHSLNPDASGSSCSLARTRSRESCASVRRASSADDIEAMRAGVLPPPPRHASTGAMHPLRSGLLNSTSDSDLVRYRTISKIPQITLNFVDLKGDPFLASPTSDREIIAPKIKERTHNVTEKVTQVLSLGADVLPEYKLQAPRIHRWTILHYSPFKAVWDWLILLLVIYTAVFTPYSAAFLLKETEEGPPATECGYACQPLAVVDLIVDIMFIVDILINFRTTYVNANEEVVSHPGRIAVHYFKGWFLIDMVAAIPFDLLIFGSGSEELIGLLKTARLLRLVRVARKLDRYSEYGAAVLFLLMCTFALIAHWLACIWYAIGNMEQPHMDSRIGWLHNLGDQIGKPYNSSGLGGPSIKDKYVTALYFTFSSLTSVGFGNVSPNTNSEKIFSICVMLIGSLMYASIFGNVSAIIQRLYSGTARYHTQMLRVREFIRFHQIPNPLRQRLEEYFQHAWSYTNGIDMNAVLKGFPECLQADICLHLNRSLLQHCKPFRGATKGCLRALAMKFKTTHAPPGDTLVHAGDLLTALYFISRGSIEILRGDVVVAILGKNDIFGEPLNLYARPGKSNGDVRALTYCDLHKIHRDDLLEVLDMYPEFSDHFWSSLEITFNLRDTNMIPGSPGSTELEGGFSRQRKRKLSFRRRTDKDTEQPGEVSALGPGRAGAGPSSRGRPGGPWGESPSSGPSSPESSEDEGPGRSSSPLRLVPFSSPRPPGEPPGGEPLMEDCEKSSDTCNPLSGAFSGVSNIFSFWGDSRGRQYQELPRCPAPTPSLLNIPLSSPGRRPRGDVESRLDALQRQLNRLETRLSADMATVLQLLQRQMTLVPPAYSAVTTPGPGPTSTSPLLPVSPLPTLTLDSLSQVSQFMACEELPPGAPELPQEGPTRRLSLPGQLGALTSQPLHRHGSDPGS

Q: How did the “hERG current change (%, negative = inhibition) at 1uM” value turn out when `Cc1cc(F)ccc1N1CCC(N2CCN(C)C(CCO)C2)CC1` (stereo not drawn) was run?
A: 16.7%

Q: For `O=C(c1cccc(N2C(=O)C3C4C=CC(C4)C3C2=O)c1)N1CCN(c2ccccc2)CC1` (stereo not drawn), which “hERG current change (%, negative = inhibition) at 1uM” value is on record?
A: 7.71%

Q: `COc1ccc(OC)c(C2C3=C(N=c4s/c(=C\c5cccc(O)c5)c(=O)n42)c2ccccc2CC3)c1` (stereo not drawn) was tested. Which “hERG current change (%, negative = inhibition) at 1uM” value did it give?
A: 2.76%

Q: Which “hERG current change (%, negative = inhibition) at 1uM” value does the source give for `CCOC(=O)c1nnn(-c2nonc2N)c1CN1CCCC1` here?
A: 13.8%

Q: Which “hERG current change (%, negative = inhibition) at 1uM” value does the source give for `Cc1ccccc1Nc1nc(=O)c2cc([N+](=O)[O-])ccc2s1` here?
A: 2.19%

Q: How did the “hERG current change (%, negative = inhibition) at 1uM” value turn out when `CC12CCC(C(=O)NCc3ccc4c(c3)OCO4)(OC1=O)C2(C)C` (stereo not drawn) was run?
A: 13.2%

Q: `O=C(NNc1c2ccccc2nc2ccccc12)c1cc2ccccc2cc1O` was tested. Which “hERG current change (%, negative = inhibition) at 1uM” value did it give?
A: 20.9%

Q: With `CCC(NC(=O)c1cc(COc2ccc(OC)cc2Cl)on1)c1ccncc1` (stereo not drawn) as the molecule, how does the “hERG current change (%, negative = inhibition) at 1uM” value read?
A: 1.89%

Q: Which “hERG current change (%, negative = inhibition) at 1uM” value does the source give for `O=C(Cn1cc(C(=O)c2ccccc2F)c2ccccc21)NC1CC1` here?
A: -10.6%

Q: Which “hERG current change (%, negative = inhibition) at 1uM” value does the source give for `C/C(=N\NC(=S)NCCc1ccccc1)c1ccc(C#N)cc1` here?
A: 4.49%

Q: `CC(C)[C@H](N)C(=O)OCCOCn1cnc2c(=O)[nH]c(N)nc21` was tested. Which “hERG current change (%, negative = inhibition) at 1uM” value did it give?
A: 16.3%

Q: `CN(CC(=O)Nc1ccccc1Br)C(=O)c1ccncc1` was tested. Which “hERG current change (%, negative = inhibition) at 1uM” value did it give?
A: 9.54%

Q: With `Cc1nn(Cc2ccc(Cl)c(Cl)c2)c(C)c1NC(=O)c1cc(CC(C)C)on1` as the molecule, how does the “hERG current change (%, negative = inhibition) at 1uM” value read?
A: 4.05%

Q: With `COC(=O)C1=CN(Cc2cccs2)C=C(C(=O)OC)C1c1cccc(O)c1` as the molecule, how does the “hERG current change (%, negative = inhibition) at 1uM” value read?
A: -9.82%

Q: With `COc1ccc(Oc2cn[nH]c2-c2ccc(OCC(=O)NN)cc2O)cc1` as the molecule, how does the “hERG current change (%, negative = inhibition) at 1uM” value read?
A: 2.58%

Q: `CCCN1C(=O)/C(=C2\SC(N3CCCCC3)=NC2=O)c2ccccc21` was tested. Which “hERG current change (%, negative = inhibition) at 1uM” value did it give?
A: 19.5%

Q: With `Cc1cc(F)ccc1S(=O)(=O)N1CCCOC1CNC(=O)C(=O)NCc1ccco1` (stereo not drawn) as the molecule, how does the “hERG current change (%, negative = inhibition) at 1uM” value read?
A: 19.4%

Q: How did the “hERG current change (%, negative = inhibition) at 1uM” value turn out when `CCSc1nnc(NC(=O)c2cc(C)oc2C)s1` was run?
A: 13.9%

Q: For `C=CCN1C(=O)NC(=O)C(Cc2ccc(OC)c(OC)c2)C1=O` (stereo not drawn), which “hERG current change (%, negative = inhibition) at 1uM” value is on record?
A: 12.2%

Q: How did the “hERG current change (%, negative = inhibition) at 1uM” value turn out when `OCCNc1nc2ccc(Cl)cc2[nH]1` was run?
A: 1.16%

Q: How did the “hERG current change (%, negative = inhibition) at 1uM” value turn out when `O=C(CN1C(=O)NC(Cc2ccccc2)C1=O)Nc1ccc(F)cc1` (stereo not drawn) was run?
A: 11.3%

Q: How did the “hERG current change (%, negative = inhibition) at 1uM” value turn out when `O=C(CCSc1nc(-c2ccco2)cc(C(F)(F)F)n1)NCC1CCCO1` (stereo not drawn) was run?
A: 5.73%

Q: With `Nc1nn(S(=O)(=O)c2ccccc2)cc1-c1ccc([N+](=O)[O-])cc1` as the molecule, how does the “hERG current change (%, negative = inhibition) at 1uM” value read?
A: -1.13%

Q: How did the “hERG current change (%, negative = inhibition) at 1uM” value turn out when `Cc1cccc(-n2c(O)c(C=NCc3cccnc3)c(=O)[nH]c2=O)c1C` was run?
A: 12.4%
